Among the data in PubChem BioAssay AID463173 (ICCB-Longwood Screening Facility, Harvard Medical School, 2010) are survival values, retold here.

SMILES strings stand for the structures. Screen size: about 52,000 compounds; about 1,700 (3.3%) were called active. Rule as the data show it: active = survival mostly below about 52% (no sharp cut-off); inactive = mostly above about 56%. The list shows a part of the results.

This assay concerns Wild type. As to the kind of experiment: growth inhibition of S. aureus wild type versus tarO mutant, primary screen, teichoic acid synthesis inhibitors, RN4220, OD600 (AID 463173). The note with it: S. aureus RN4220 wild type/DeltatarO growth, OD600, 18 h, active compounds read low, screened at 18.75 µg/mL (by protocol).
Take `CC1=C(C)C(=O)N(c2ccccn2)C1=O`: the survival is inactive: 111%. For `Cc1ccc(NC(=O)C2CCCN(S(=O)(=O)c3cccc4nsnc34)C2)cc1C` (stereo unspecified), the survival is inactive: 81%. Consider `COc1ccc(-n2c(=O)c3sc4ccccc4c3n(C)c2=O)cc1`, for which the survival is inactive: 83%.

Regarding `CCCN1CCN(c2nnc(-n3cccc3C(=O)Nc3cc(Cl)ccc3C)s2)CC1`, the survival was inactive: 82%. In the case of `CCSc1ncc(Cl)c(C(=O)Nc2nc3ccc(S(C)(=O)=O)cc3s2)n1`, the survival was inactive: 106%. As for `COc1cccc(/C=N/c2nc3ccccc3n2C)c1O`, the survival was inactive: 106%. As to `Cc1ccc(-c2nc(CS(=O)CC(=O)NCc3ccccc3Cl)c(C)o2)cc1` (stereo unspecified), the survival was inactive: 72%.

For `CCOC(=O)Cc1ccc(NC(=O)N2CCSc3ccccc32)cc1`, the survival was inactive: 70%. Regarding `COc1ccccc1NC(=O)CSC1=Nc2ccccc2C2=NC(CCC(=O)NCc3ccco3)C(=O)N12` (stereo unspecified), the survival is inactive: 72%. As for `CCCN(CCC)CCCNC(=O)C1CCCN(Cc2nc(-c3ccc(Cl)cc3)oc2C)C1` (stereo unspecified), the survival was inactive: 126%.

As for `COCCNC(=O)C1CCN(C(=O)c2cc3sccc3n2Cc2ccc(Cl)cc2)CC1`, the survival was inactive: 112%. Turning to `COc1ccc(C2(Nc3cccc(F)c3)C(=O)c3ccccc3C2=O)cc1`, the survival was inactive: 58%. On to `CCOc1ccc2nc(SCC(=O)Nc3ccc(F)cc3)nc(-c3ccccc3)c2c1`, for which the survival is inactive: 122%. For the compound `O=c1ccc2cc(S(=O)(=O)Nc3ccc(F)c(Cl)c3)ccc2[nH]1`, the survival is inactive: 85%. The result for `Cn1nnc2c(NCc3ccc(Cl)cc3)ncnc21` reads inactive: 88%. On to `COc1cccc(CNC(=O)Cc2c(C)c3c(cc(C)c4c(C)c(C)oc43)oc2=O)c1`, for which the survival is inactive: 89%. The result for `O=S(=O)(c1ccc(Cl)cc1)c1nc(-c2cccs2)oc1SCc1ccc(F)cc1` reads inactive: 68%; that for `Cc1ccc2oc(-c3ccc(NC(=O)C(F)(F)F)cc3)nc2c1`, inactive: 113%; that for `COc1ccc(OC)c(NC(=O)C2Cc3ccccc3CN2S(=O)(=O)c2ccc(F)cc2)c1` (stereo unspecified), inactive: 88%. Consider `CC1=C(C(=O)Nc2ccc(Cl)cc2)C(c2ccccc2F)n2nc(SCc3cccc(Cl)c3)nc2N1` (stereo unspecified), for which the survival was inactive: 83%.

As for `Cc1ccc(-n2ncc3c(NC(C)c4ccccc4)ncnc32)cc1` (stereo unspecified), the survival was inactive: 73%. Turning to `COc1ccc(NC(=O)Cn2c(=O)n(Cc3ccccc3OC)c(=O)c3cccnc32)cc1Cl`, the survival is inactive: 93%. The result for `COc1ccc(-n2nc3cc(C)c(NC(=O)c4ccc5c(c4)OCO5)cc3n2)cc1` reads inactive: 107%. The result for `CCc1ccc(CNC(=O)c2cc3n(n2)CCCN(Cc2ccccc2)C3=O)cc1` reads inactive: 134%; that for `Cc1ccc(Cn2c(=O)n(CCc3ccc(Cl)cc3)c(=O)c3ccccc32)cc1`, inactive: 39%.

On to `Cc1ccc(Nc2c(-c3ccc(C)s3)nc3ccccn23)cc1`, for which the survival is inactive: 31%.

For the compound `Cc1cc(Cl)ccc1NC(=O)Cc1ccc(NC(=O)N2CCCCc3ccccc32)cc1`, the survival was inactive: 68%. With `COc1ccc(C)cc1NC(=O)C1CCN(S(=O)(=O)c2cc(Br)cc3c2N(C(C)=O)CC3)CC1`, the survival is inactive: 97%.

As for `CCOC(=O)N1CC=C2C(C#N)=C(N)C(C#N)(C#N)C(c3ccc(CC)cc3)C2C1` (stereo unspecified), the survival is inactive: 98%. Take `O=C(Cn1c(-c2ccccc2)noc1=O)Nc1cccc(Cl)c1Cl`: the survival was inactive: 105%.

Turning to `O=C(CSc1nnc(-c2ccc(Cl)cc2)o1)c1ccc([N+](=O)[O-])cc1`, the survival was inactive: 60%. For the compound `CCN1C(C)=C(C)S/C1=C1\SC(=S)N(C2CCCCC2)C1=O`, the survival was inactive: 110%. To `CCc1ccc(C(=O)c2cn(CC(=O)Nc3cccc(OC)c3)c3cc4c(cc3c2=O)OCO4)cc1` belongs inactive: 91%; to `CCn1c(SCc2c(F)cccc2Cl)nc(=O)c2c(C(=O)OC)cc(C3CC3)nc21`, inactive: 66%; to `O=C(c1ccccc1Br)N(Cc1ccco1)Cc1ccco1`, inactive: 82%. The result for `CCc1nn2c(=O)cc(COC(=O)c3ccccc3)nc2s1` reads inactive: 91%. As to `Cc1ccc(-c2nnc(NC3CCCC3)s2)cc1`, the survival is inactive: 126%. As to `COc1ccc(C)c2sc(N3CCN(C(=O)c4cccc(F)c4)CC3)nc12`, the survival was inactive: 133%. As to `CCOc1ccccc1NC(=O)N(Cc1ccc(C)o1)C1CCN(C(C)=O)CC1`, the survival was inactive: 75%. To `Cc1ccc(-c2cc3ncc4c(n3n2)-c2cc(F)ccc2OC4)cc1` belongs inactive: 132%. On to `CCOC(=O)CNC(=O)N1CCCN(S(=O)(=O)c2ccc3c(ccn3CC)c2)CC1`, for which the survival was inactive: 68%. `COc1ccc(C)cc1NC(=O)C1CCCN(c2ncnc3onc(C)c23)C1` (stereo unspecified): the survival was inactive: 81%. For the compound `Nc1nnc(CCS(=O)(=O)c2cc(Cl)ccc2Cl)s1`, the survival was inactive: 111%. The result for `CCOc1ccccc1NC(=O)CN(C)S(=O)(=O)c1ccc(C(=O)N2CCOCC2)s1` reads inactive: 72%; that for `O=c1c(=O)n(-c2ccc(F)c(F)c2)ccn1Cc1ccc(F)cc1Cl`, inactive: 83%; that for `CCOC(=O)C1(CC)C(=O)OC(C(=O)NC2CCCCC2)C1C` (stereo unspecified), inactive: 112%. The result for `CCOc1ccc(NC(=O)N2CCN(c3nnc(C)c4c(C)n(-c5ccccc5)nc34)CC2)cc1` reads inactive: 131%; that for `Cc1cccc(NC(=O)CCn2cnc3ccccc3c2=O)c1`, inactive: 133%; that for `CCOC(=O)C1=C(CS(=O)(=O)c2ccc(F)c(C)c2)NC(=O)NC1c1ccccc1OC` (stereo unspecified), inactive: 84%. `CCCc1nnc(NC(=O)c2nc(SCC)ncc2Cl)s1`: the survival was inactive: 84%. With `CCc1nn(CC(=O)N2CCCCC2)c(=O)c2cc3occc3n12`, the survival is inactive: 73%. The result for `CCOC(=O)c1noc2ncn(CC(=O)Nc3cccc(C(F)(F)F)c3)c(=O)c12` reads inactive: 72%; that for `Cc1cc(Nc2cccc(Cl)c2)nc2ccc(NC(=O)c3cncc(Br)c3)cc12`, inactive: 73%; that for `O=C(CC1N=C2c3ccccc3N=C(SCc3ccccc3Cl)N2C1=O)NCCc1ccccc1` (stereo unspecified), inactive: 74%. To `CCCCn1c(=O)n(-c2cc(OC)ccc2OC)c(=O)c2c3c(sc21)CN(C(C)=O)CC3` belongs inactive: 114%; to `COc1ccc(-n2nc(C(=O)Nc3cc(C)ccn3)c3c4ccccc4n(C)c3c2=O)cc1`, inactive: 75%. On to `Cc1oc(-c2ccccc2Cl)nc1CS(=O)(=O)CC(=O)NCc1ccc(F)cc1`, for which the survival is inactive: 83%. For `CCC(C(=O)NCc1ccccc1OC)n1nc(C)n2c(cc3occc32)c1=O` (stereo unspecified), the survival is inactive: 69%. As for `Cc1ccc2c(=O)cc(C(=O)Nc3sc4c(c3C(=O)NCC3CCCO3)CCC4)oc2c1` (stereo unspecified), the survival is inactive: 84%. With `COc1ccc(C(=O)Nc2ccc(N(C)Cc3ccccc3)c(C(=O)O)c2)cc1`, the survival was inactive: 73%.

As to `CCOC(=O)Cn1c(=O)n(CC2CCCO2)c2nc(-c3ccccc3)nc(C(N)=O)c21` (stereo unspecified), the survival was inactive: 56%. For `Cc1cc(C)cc(NC(=O)N2CCC(CN3CCOCC3)CC2)c1`, the survival is inactive: 89%. `CC(C)NC(=O)N1[C@H](c2cccs2)[C@@H](C)C(=O)[C@@H](C)[C@@H]1c1cccs1`: the survival is inactive: 77%. As for `O=C(CN1CCCN(Cc2ccccc2F)S1(=O)=O)Nc1ccc(F)c(Cl)c1`, the survival is inactive: 74%. Take `CCOC(=O)C1=C(CN2CCN(c3ccccc3OC)CC2)NC(=O)NC1c1ccccc1` (stereo unspecified): the survival is inactive: 75%.

`Cc1ccc(CNCc2ccccc2Cl)s1`: the survival was inactive: 66%. `O=C(CNCC1CCCCC1)Nc1cccc(F)c1`: the survival is inactive: 122%. Regarding `COc1ccc(-c2nnc(SCC(=O)NCCC(C)C)nc2-c2ccc(OC)c(OC)c2)cc1OC`, the survival was inactive: 71%. As to `CCCCNC(=O)c1ccc2c(=O)n(Cc3ccc(OC)cc3)c(=O)[nH]c2c1`, the survival was inactive: 80%. As to `COC(=O)c1cc2oc(C)cc2n1CC(=O)Nc1ccc(C(C)C)cc1`, the survival is inactive: 75%. As to `CCc1cccc(C)c1NC(=O)Cn1nc(C)n2cccc2c1=O`, the survival was inactive: 89%. For the compound `CCOC(=O)C(C)Sc1ccc2nnc(CCNS(=O)(=O)c3ccc(C)cc3)n2n1` (stereo unspecified), the survival was inactive: 83%. The result for `N#Cc1c(C(F)(F)F)cc(-c2cccs2)nc1SCc1ccc(F)cc1` reads inactive: 120%; that for `CC1Cc2ccccc2N1C(=O)CSc1nc2ccc(NC(=O)COc3ccccc3)cc2s1` (stereo unspecified), inactive: 85%; that for `CC1=C(C(=O)NCc2cccc(F)c2)C2(CCCCC2)OC1=O`, active: 10%. With `CC1(c2ccc(Cl)cc2)NC(=O)CS1` (stereo unspecified), the survival is inactive: 105%. To `Cc1ccccc1CSc1cn(CC(=O)N2CCCCC2)c2ccccc12` belongs inactive: 78%; to `CCOC(=O)c1c(C)oc2nc(C)nc(NCC3CCN(Cc4ccc(C)cc4)CC3)c12`, inactive: 77%.

In the case of `O=C(Nc1cccc(C(F)(F)F)c1)c1cnn(-c2cccc(F)c2)c1C1CCNCC1`, the survival is inactive: 88%. For the compound `Cc1nn(C)cc1CN(C)C(=O)c1cc(-c2ccccc2)nc2ccc(Br)cc12`, the survival is inactive: 88%. The result for `COc1ccc(OCC(=O)N2CCc3ccccc3C2)cc1` reads inactive: 106%; that for `CC(C)(C)c1ccc(C(=O)NCCc2csc(-c3ccc(Cl)cc3)n2)cc1`, inactive: 83%; that for `CC(=O)OC1COC(N2CCc3ccccc32)C(OC(C)=O)C1OC(C)=O` (stereo unspecified), inactive: 106%. The result for `CCOc1ccc(CCNC(=O)c2oc(=O)c3ccccc3c2-c2ccc(C)cc2)cc1OCC` reads inactive: 70%; that for `Cc1ccc(NC(=O)CCS(=O)(=O)c2ccc(Br)s2)c(Br)c1`, inactive: 92%; that for `Cc1cc(=O)c2c(ccc3ccccc32)[nH]1`, inactive: 110%. With `CCCc1ccc(OCC(=O)Nc2sc(C(=O)OCC)c(C)c2C(=O)OCC)cc1`, the survival was inactive: 92%. To `CCc1ccccc1NS(=O)(=O)c1ccc2[nH]cc(C(=O)N(CC)Cc3ccccc3)c(=O)c2c1` belongs inactive: 82%.

Regarding `CSc1ncc(C(=O)NCc2ccccc2F)c(-c2ccccc2)n1`, the survival is inactive: 118%. With `Cc1ccc(C)c(N2CCN(S(=O)(=O)c3ccc4c(c3)C(C(C)C)C(=O)N4)CC2)c1` (stereo unspecified), the survival is inactive: 84%. As to `CCc1ccc(C2CC(=O)c3c([nH]c(C(=O)OC4CCCC4)c3C)C2)cc1` (stereo unspecified), the survival is inactive: 92%.
